Results on 58 compounds are retold here after publication PMC4336329 (PLoS ONE, 2015).

The whole screen tested about 310,000 compounds, of which about 14,000 (4.5%) showed an effect of 50% or more. The effect is printed as a negative number. The list shows a part of the results.
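Further: peak tail current of the secondary pulse compared with the same well before compound.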

For the assay, the target named is human ether-à-go-go-related gene (hERG) potassium channel (human, UniProt Q12809). The experiment in a line: primary screen, population patch clamp on CHO cells stably expressing hERG.
Sequence of human ether-à-go-go-related gene (hERG) potassium channel (Q12809 whole entry, looked up): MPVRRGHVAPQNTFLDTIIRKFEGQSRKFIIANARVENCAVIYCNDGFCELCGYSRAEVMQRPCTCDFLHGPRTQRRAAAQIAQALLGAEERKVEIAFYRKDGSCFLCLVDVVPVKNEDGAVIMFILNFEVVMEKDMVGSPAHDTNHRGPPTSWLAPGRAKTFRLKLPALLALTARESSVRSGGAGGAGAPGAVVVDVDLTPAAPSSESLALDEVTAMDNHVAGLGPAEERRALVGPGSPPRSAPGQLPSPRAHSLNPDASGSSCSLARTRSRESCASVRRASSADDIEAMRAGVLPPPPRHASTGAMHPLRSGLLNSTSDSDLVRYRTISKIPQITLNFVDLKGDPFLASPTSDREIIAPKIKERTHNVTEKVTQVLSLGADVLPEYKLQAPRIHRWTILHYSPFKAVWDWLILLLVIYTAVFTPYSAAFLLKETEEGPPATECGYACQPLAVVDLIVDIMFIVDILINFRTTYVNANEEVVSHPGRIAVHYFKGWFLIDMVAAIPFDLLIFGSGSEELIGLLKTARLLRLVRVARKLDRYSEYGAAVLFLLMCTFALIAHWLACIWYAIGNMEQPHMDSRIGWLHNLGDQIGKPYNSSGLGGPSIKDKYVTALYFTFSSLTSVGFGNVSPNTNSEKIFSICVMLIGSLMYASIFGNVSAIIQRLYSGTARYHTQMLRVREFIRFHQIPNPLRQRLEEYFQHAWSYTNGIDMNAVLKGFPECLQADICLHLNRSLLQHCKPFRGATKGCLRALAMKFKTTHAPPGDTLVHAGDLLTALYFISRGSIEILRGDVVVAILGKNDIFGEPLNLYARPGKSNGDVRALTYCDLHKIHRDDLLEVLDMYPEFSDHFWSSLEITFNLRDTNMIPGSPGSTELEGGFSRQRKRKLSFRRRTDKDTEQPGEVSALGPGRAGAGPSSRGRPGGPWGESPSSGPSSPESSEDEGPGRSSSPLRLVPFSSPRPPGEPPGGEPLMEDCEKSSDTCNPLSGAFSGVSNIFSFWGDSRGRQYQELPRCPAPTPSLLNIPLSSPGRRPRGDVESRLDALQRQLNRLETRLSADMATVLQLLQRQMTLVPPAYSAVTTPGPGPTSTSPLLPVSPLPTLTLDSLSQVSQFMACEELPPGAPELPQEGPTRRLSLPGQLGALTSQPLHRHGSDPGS
For the compound `CCCNC(=O)C(Cc1ccc(OC)cc1)NC(=O)c1ccc(C#N)cc1` (stereo not shown), the “hERG current change (%, negative = inhibition) at 10uM” value is -50.7%.

Turning to `Cc1ccc(-c2csc3nc(CN(C)Cc4ccccc4)[nH]c(=O)c23)cc1`, the “hERG current change (%, negative = inhibition) at 10uM” value is given as 30.4%.

For `O=C(NCc1ccco1)c1cc2ccccc2o1`, the “hERG current change (%, negative = inhibition) at 10uM” value came out at 11.8%.

Regarding `O=C(COC(=O)c1ccc(Cl)c(S(=O)(=O)N2CCCCC2)c1)NCc1ccco1`, the “hERG current change (%, negative = inhibition) at 10uM” value is on record as -42.2%.

`CC(C)c1ccc(C(=O)NNC(=O)c2n[nH]c(=O)c3ccccc23)cc1`: the “hERG current change (%, negative = inhibition) at 10uM” value was -6.49%.

With `Cc1ccc(NC(=O)N2CCCC2C(=O)Nc2ccc3c(c2)OCCO3)cc1` (stereo not shown), the “hERG current change (%, negative = inhibition) at 10uM” value came out at 4.33%.

For the compound `CNC(=O)c1[nH]cnc1C(=O)Nc1ccc(OC)cc1`, the “hERG current change (%, negative = inhibition) at 10uM” value came out at 20.8%.

On to `COc1ccccc1C1=NCc2nnc(C)n2-c2ccc(Cl)cc21`, for which the “hERG current change (%, negative = inhibition) at 10uM” value came to 3.01%.

In the case of `CCN(CC)CCN1C(=O)c2ccccc2NC1c1cccc(F)c1` (stereo not shown), the “hERG current change (%, negative = inhibition) at 10uM” value is recorded as -68.2%.

As to `COc1ccc(-n2c(/C=C/c3ccc4c(c3)OCO4)nc3ccccc3c2=O)cc1`, the “hERG current change (%, negative = inhibition) at 10uM” value was -55.3%.

Turning to `CCN1C(=O)/C(=C/c2cccs2)SC1=Nc1ccc(OC)cc1`, the “hERG current change (%, negative = inhibition) at 10uM” value is 0.839%.

Turning to `COCc1cc(C)nc2sc3c(=O)n(-c4cccc5ccccc45)nnc3c12`, the “hERG current change (%, negative = inhibition) at 10uM” value is reported as 12.7%.

Take `CC1CN(C(=O)CCC(=O)N2CCN(c3ccccn3)CC2)c2ccccc2O1` (stereo not shown): the “hERG current change (%, negative = inhibition) at 10uM” value was -7.9%.

With `Cc1cc(=O)oc2cc(OCC(=O)NC3CCCC3)ccc12`, the “hERG current change (%, negative = inhibition) at 10uM” value was -67.2%.

`C=CCNC(=S)/N=c1/scc(C)n1C`: the “hERG current change (%, negative = inhibition) at 10uM” value was -3.67%.

As to `CC(C)(C)C(=O)Nc1nnc(CC(=O)NCc2ccccc2)s1`, the “hERG current change (%, negative = inhibition) at 10uM” value turned out to be 2.83%.

Regarding `COc1cccc(OC)c1OCCN1CCCC1`, the “hERG current change (%, negative = inhibition) at 10uM” value worked out at 15.8%.

On to `Cc1cc2nc(Sc3c([N+](=O)[O-])nc(C)n3Cc3ccccc3)[nH]c2cc1C`, for which the “hERG current change (%, negative = inhibition) at 10uM” value was -11.4%.

For the compound `O=C(COC(=O)/C=C/c1ccc(OC(F)F)cc1)NC1CCCCCCC1`, the “hERG current change (%, negative = inhibition) at 10uM” value is recorded as -3.07%.

`O=C(/C=C/c1ccc2ccccc2n1)N1CCN(S(=O)(=O)c2ccc(F)cc2)CC1`: the “hERG current change (%, negative = inhibition) at 10uM” value is reported as -52.4%.

In the case of `CCCn1c(N)c(C(=O)COc2ccc(Br)cc2F)c(=O)n(C)c1=O`, the “hERG current change (%, negative = inhibition) at 10uM” value turned out to be 11.8%.

For the compound `O=C(Nc1c2c(nc3ccccc13)CCCC2)c1ccccc1Br`, the “hERG current change (%, negative = inhibition) at 10uM” value is 4.09%.

As to `COc1ccc(C2=NOC(C(=O)Nc3ccc(C(C)=O)cc3)C2)cc1OC` (stereo not shown), the “hERG current change (%, negative = inhibition) at 10uM” value is -11.4%.

With `O=C(NCc1ccco1)C12CC3CC(C1)CC(C(=O)NCc1ccco1)(C3)C2`, the “hERG current change (%, negative = inhibition) at 10uM” value is listed as 2.32%.

Consider `Cc1ccc2[nH]c(=O)cc(C(=O)OCC(=O)c3ccc(F)cc3)c2c1`, for which the “hERG current change (%, negative = inhibition) at 10uM” value is on record as 6.34%.

For `Cc1nn(-c2ccc(Cl)c(Cl)c2Cl)c(=O)c2ccccc12`, the “hERG current change (%, negative = inhibition) at 10uM” value is -35.2%.

As for `Cc1cc2nnc(SCC(=O)NCc3cccs3)n2c(N)n1`, the “hERG current change (%, negative = inhibition) at 10uM” value is listed as -8.37%.

For the compound `C=C(C)Cn1c(-c2ccncc2)n[nH]c1=S`, the “hERG current change (%, negative = inhibition) at 10uM” value came to 33%.

Consider `COc1cc(OC)c(NC(=O)C2CCCO2)cc1Cl` (stereo not shown), for which the “hERG current change (%, negative = inhibition) at 10uM” value worked out at 1.53%.

In the case of `O=C(CN1C(=O)NC2(CCCCC2)C1=O)Nc1ccc(F)cc1`, the “hERG current change (%, negative = inhibition) at 10uM” value amounted to 2%.

With `Cc1nnc(N2CCc3ccccc3C2)[nH]c1=O`, the “hERG current change (%, negative = inhibition) at 10uM” value is 3.3%.

As for `O=C(NC1CCCCC1)c1cc(S(=O)(=O)N2CCOCC2)c(Cl)cc1Cl`, the “hERG current change (%, negative = inhibition) at 10uM” value came out at 13.6%.

On to `COC(=O)C1=C(c2ccc(Cl)c(C(F)(F)F)c2)C[C@@H]2CC[C@H]1N2C(=O)NC1CC1`, for which the “hERG current change (%, negative = inhibition) at 10uM” value amounted to 2.47%.

On to `CCc1ccc(OCC(=O)NNC(=O)CSc2ncnc3sc(C)c(C)c23)cc1`, for which the “hERG current change (%, negative = inhibition) at 10uM” value is recorded as 1.55%.

Consider `CN(CCOc1ccc(Br)cc1)CC(O)COc1ccc(C#N)cc1` (stereo not shown), for which the “hERG current change (%, negative = inhibition) at 10uM” value was -16.3%.

Consider `O=C(NCc1cccnc1)C1CCCCN1S(=O)(=O)c1ccc(F)cc1` (stereo not shown), for which the “hERG current change (%, negative = inhibition) at 10uM” value is -20.9%.

`COc1ccc(C)cc1N1CC(C(=O)Nc2ccccc2N2CCCCC2)CC1=O` (stereo not shown): the “hERG current change (%, negative = inhibition) at 10uM” value was -19.5%.

Consider `O=C(N/N=C/c1cn(Cc2ccccc2)c2ccccc12)c1ccncc1`, for which the “hERG current change (%, negative = inhibition) at 10uM” value is given as -11.2%.

Consider `O=C(c1ccc(CSc2nc3ccncc3[nH]2)cc1)N1CCCCCC1`, for which the “hERG current change (%, negative = inhibition) at 10uM” value is reported as -28%.

As to `COc1ccc2c3n(nc2c1)CCN=C3c1ccc(C)cc1`, the “hERG current change (%, negative = inhibition) at 10uM” value is reported as -14.3%.

Turning to `COc1ccc(-c2nc(-c3ccccc3)no2)c(OC)c1`, the “hERG current change (%, negative = inhibition) at 10uM” value was -5.16%.

On to `CS(=O)(=O)c1nc2c(cc1C#N)CCCC2`, for which the “hERG current change (%, negative = inhibition) at 10uM” value came to 14.9%.

With `CCN(CC)CCOC(=O)C12CC3CC(CC(C3)C1)C2`, the “hERG current change (%, negative = inhibition) at 10uM” value was -5.01%.

As for `CCN1C(=O)CC(N2CCC(c3nc4ccccc4[nH]3)CC2)C1=O` (stereo not shown), the “hERG current change (%, negative = inhibition) at 10uM” value was determined as 1.03%.

As to `Cc1ccc(-c2noc(C3CCCN(C(=O)c4ccccc4)C3)n2)o1` (stereo not shown), the “hERG current change (%, negative = inhibition) at 10uM” value is given as -13.1%.

For `COc1ccc(CC(=O)Nc2ccccc2N2CCOCC2)cc1OC`, the “hERG current change (%, negative = inhibition) at 10uM” value amounted to 4.34%.

As for `COC(=O)c1ccccc1S(=O)(=O)NC(=O)c1ccccc1`, the “hERG current change (%, negative = inhibition) at 10uM” value was -1.01%.

On to `CC/C(=N\NC(=O)C(N)=O)c1ccccc1O`, for which the “hERG current change (%, negative = inhibition) at 10uM” value turned out to be 12.6%.

For the compound `CCc1cc2c(SCC(=O)N(C)C3CCS(=O)(=O)C3)ncnc2s1` (stereo not shown), the “hERG current change (%, negative = inhibition) at 10uM” value was -20.1%.

As for `CCOP(=O)(OCC)c1ccc(OP(=O)(c2cccc([N+](=O)[O-])c2)c2cccc([N+](=O)[O-])c2)cc1`, the “hERG current change (%, negative = inhibition) at 10uM” value came to 14.3%.

On to `Cc1ccccc1NC(=O)CSc1n[nH]c(-c2ccco2)n1`, for which the “hERG current change (%, negative = inhibition) at 10uM” value worked out at 10.1%.

Turning to `CCCCN1C(=S)SC(C)(C)C1/[N+]([O-])=C/c1cccnc1` (stereo not shown), the “hERG current change (%, negative = inhibition) at 10uM” value is on record as -2.41%.

For the compound `Cc1ccc(C2C(C#N)=C(N)Oc3n[nH]c(-c4cccs4)c32)s1` (stereo not shown), the “hERG current change (%, negative = inhibition) at 10uM” value is 13.9%.

As to `N#Cc1ccc(C(=O)N2CCN(S(=O)(=O)c3ccc(Cl)s3)CC2)cc1`, the “hERG current change (%, negative = inhibition) at 10uM” value is recorded as -49.9%.

`Cc1ccc(-n2c(SCC(=O)N(C)C3CCS(=O)(=O)C3)nc3ccccc3c2=O)cc1` (stereo not shown): the “hERG current change (%, negative = inhibition) at 10uM” value was 11%.

For `COc1ccc(CCNC(=O)CSC2=NS(=O)(=O)c3cc(Cl)ccc3N2)cc1OC`, the “hERG current change (%, negative = inhibition) at 10uM” value came to 10.6%.

Regarding `CC(=O)Nc1ccc(NC(=O)C(C)Sc2n[nH]c(=O)n2Cc2ccccc2)cc1` (stereo not shown), the “hERG current change (%, negative = inhibition) at 10uM” value is 16%.

`Cc1ccc(C(CC(=O)N2CCNCC2)c2ccccc2)c(O)c1C` (stereo not shown): the “hERG current change (%, negative = inhibition) at 10uM” value is listed as -63.8%.
